Hit rate of the full screen: of about 310,000 compounds, about 14,000 (4.5%) showed an effect of 50% or more. Effects have a minus sign here. Some of the results follow.

Data on 44 molecules can be found in PMC4336329 (PLoS ONE, 2015).
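Note: peak tail current of the secondary pulse compared with the same well before compound.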

human ether-à-go-go-related gene (hERG) potassium channel, sequence (Q12809 whole entry, looked up): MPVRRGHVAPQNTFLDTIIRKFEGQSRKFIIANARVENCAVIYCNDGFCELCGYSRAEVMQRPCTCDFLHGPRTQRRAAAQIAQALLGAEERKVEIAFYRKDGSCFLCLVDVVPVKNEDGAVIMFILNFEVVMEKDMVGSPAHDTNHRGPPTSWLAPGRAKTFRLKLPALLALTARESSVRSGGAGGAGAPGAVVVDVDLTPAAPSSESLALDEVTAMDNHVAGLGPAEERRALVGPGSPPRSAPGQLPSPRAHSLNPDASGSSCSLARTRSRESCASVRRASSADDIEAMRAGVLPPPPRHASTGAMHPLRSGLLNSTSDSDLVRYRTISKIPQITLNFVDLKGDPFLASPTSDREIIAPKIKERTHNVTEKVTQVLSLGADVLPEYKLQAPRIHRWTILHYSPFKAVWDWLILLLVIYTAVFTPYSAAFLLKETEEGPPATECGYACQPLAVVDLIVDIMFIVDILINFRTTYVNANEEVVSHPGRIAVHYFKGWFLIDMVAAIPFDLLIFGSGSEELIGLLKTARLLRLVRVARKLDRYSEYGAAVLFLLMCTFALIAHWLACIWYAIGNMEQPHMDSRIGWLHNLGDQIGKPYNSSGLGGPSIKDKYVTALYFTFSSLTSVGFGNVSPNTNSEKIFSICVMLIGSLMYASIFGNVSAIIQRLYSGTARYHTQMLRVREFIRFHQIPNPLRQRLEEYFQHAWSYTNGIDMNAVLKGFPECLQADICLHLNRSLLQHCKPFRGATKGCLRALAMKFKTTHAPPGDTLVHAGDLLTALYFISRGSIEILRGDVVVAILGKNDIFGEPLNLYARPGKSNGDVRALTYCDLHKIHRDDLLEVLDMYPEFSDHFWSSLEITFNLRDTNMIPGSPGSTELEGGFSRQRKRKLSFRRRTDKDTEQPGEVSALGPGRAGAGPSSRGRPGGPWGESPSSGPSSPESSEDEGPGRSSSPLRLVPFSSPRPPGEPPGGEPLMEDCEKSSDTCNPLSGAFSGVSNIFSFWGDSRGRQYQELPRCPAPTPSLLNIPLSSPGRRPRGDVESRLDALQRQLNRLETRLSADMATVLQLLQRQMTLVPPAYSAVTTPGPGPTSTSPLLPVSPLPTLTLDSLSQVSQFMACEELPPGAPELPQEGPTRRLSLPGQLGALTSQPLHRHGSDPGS

The test concerns the target human ether-à-go-go-related gene (hERG) potassium channel (human, UniProt Q12809). Kind of test: primary screen, population patch clamp on CHO cells stably expressing hERG.
For `CC(C)(C)n1nnnc1C(c1ccc(Cl)cc1)N(Cc1cccnc1)Cc1ccco1` (centres unmarked), the “hERG current change (%, negative = inhibition) at 10uM” value is listed as -14.7%.
As for `CN(Cc1ccccc1)S(=O)(=O)c1ccc2[nH]c(=O)ccc2c1`, the figure is -1.77%; as for `O=C(NC1CCCCC1)C(c1ccc(Cl)cc1)N1CCC2(CC1)OCCO2` (centres unmarked), -1.75%.
Regarding `CC(=O)C(Cc1ccccc1)NC(=O)CN1c2cccc3cccc(c23)S1(=O)=O` (centres unmarked), the “hERG current change (%, negative = inhibition) at 10uM” value is reported as 18%.
`CCCc1ccc(OCc2ccc(C(=O)N/N=C/c3cccnc3)o2)cc1`: the “hERG current change (%, negative = inhibition) at 10uM” value turned out to be 0.17%.
`CC1(C)Oc2nc3ccccc3n2/C1=C\C#N`: the “hERG current change (%, negative = inhibition) at 10uM” value is -5.76%.
For the molecule `CCC(=O)c1ccc(OCC(=O)OCC(=O)NCCC2=CCCCC2)cc1`, the “hERG current change (%, negative = inhibition) at 10uM” value came out at 11.7%.
For `O=C1CCCCN1CC(=O)N1CCCC(Nc2ccc(F)cc2)C1` (centres unmarked) the value was 4.75%; for `O=C(Nc1ccc(Cl)cc1Cl)NC1CCN(S(=O)(=O)c2ccc(F)cc2)CC1`, 17.8%.
On to `COc1cc(C(=O)NCc2ccc(S(N)(=O)=O)cc2)ccc1OCC(=O)N1CCOCC1`, for which the “hERG current change (%, negative = inhibition) at 10uM” value was 12.5%.
As to `COc1cc(/C=N/NC(=O)NC2CCCCC2)cc(OC)c1O`, the “hERG current change (%, negative = inhibition) at 10uM” value was -7.87%.
For `Cc1ccc(/C=N/Nc2nc(Cl)c(Cl)cc2Cl)s1` the value was 12.6%; for `Cc1c([N+](=O)[O-])c2ccc(O)cc2n1-c1ccccc1`, 9.18%.
`COC(=O)c1sc2nc(N3CCCCC3)c3c(c2c1N)CCCC3`: the “hERG current change (%, negative = inhibition) at 10uM” value was determined as 24.6%.
As for `NS(=O)(=O)c1ccc(NC(=O)COC(=O)c2cc(Cl)ccc2[N+](=O)[O-])cc1`, the figure is -4.94%.
As for `Cc1nc2ccccc2c2c(N)c3ccccc3n12`, the “hERG current change (%, negative = inhibition) at 10uM” value is recorded as 8.76%.
Turning to `CC(NS(=O)(=O)c1ccc(Cl)c(Cl)c1)C(=O)OCC(=O)N1CCCCCC1` (centres unmarked), the “hERG current change (%, negative = inhibition) at 10uM” value is recorded as -32.4%.
For `O=C(Nc1ccccc1)c1cc2ccc3ccccc3c2s1` the value was 16.8%; for `CCN(CCC#N)c1ccc(/C=N/Nc2nc(C)cc(=O)[nH]2)c(C)c1`, 6.77%; for `O=[N+]([O-])c1ccccc1SNc1ccccn1`, 1.54%.
Regarding `COc1ccc(NC(=O)COC(=O)C2CC2)c(OC)c1`, the “hERG current change (%, negative = inhibition) at 10uM” value was -0.146%.
Turning to `Cc1nnc(SCC(=O)Nc2cc(S(C)(=O)=O)ccc2Cl)n1Cc1ccccc1`, the “hERG current change (%, negative = inhibition) at 10uM” value was 6.22%.
In the case of `CCc1nnc(NC(=O)CSc2nc3c(cc2C#N)CCCC3)s1`, the “hERG current change (%, negative = inhibition) at 10uM” value was found to be 10.8%.
With `O=C1c2cccc3cc([N+](=O)[O-])cc(c23)C(=O)N1c1ccccc1O`, the “hERG current change (%, negative = inhibition) at 10uM” value was 4.06%.
`CC12CCC(C/C1=N/OC(=O)c1cccc([N+](=O)[O-])c1)C2(C)C` (centres unmarked): the “hERG current change (%, negative = inhibition) at 10uM” value is reported as 22.4%.
For `CCc1ccc(OCC(=O)N2CC(C(N)=O)Oc3ccccc32)cc1` (centres unmarked) the value was -38.8%.
`CCN(CC)C(=O)c1cc(Cl)ccc1NC(=O)c1ccco1`: the “hERG current change (%, negative = inhibition) at 10uM” value was -3.78%.
On to `O=C(Nc1cccnc1)c1ccc(S(=O)(=O)c2ccccc2)cc1`, for which the “hERG current change (%, negative = inhibition) at 10uM” value is 14.9%.
Turning to `O=c1cc(CN2CCc3ccccc3C2)nc2sccn12`, the “hERG current change (%, negative = inhibition) at 10uM” value is on record as -8.07%.
In the case of `Cc1ccccc1NC(=O)c1ccc2nccnc2c1`, the “hERG current change (%, negative = inhibition) at 10uM” value is -9.3%.
For `Cc1cccn2c(=O)c3cc(C(=O)NCC4CCCO4)c(=N)n(C4CCCC4)c3nc12` (centres unmarked) the value was -74.8%; for `Cc1ccc(NC(=O)CCN2C(=O)C3C4CCC(C4)C3C2=O)cc1[N+](=O)[O-]` (centres unmarked), -0.749%.
As to `Nc1ccc(C(=O)[O-])cc1.[K+]`, the “hERG current change (%, negative = inhibition) at 10uM” value was 17.1%.
For the molecule `OCCSc1ncnc2c1oc1ccccc12`, the “hERG current change (%, negative = inhibition) at 10uM” value amounted to 4.27%.
Take `COc1cc(S(=O)(=O)N2CCOCC2)cc(C(=O)OCC(=O)NC2CCCCC2)c1OC`: the “hERG current change (%, negative = inhibition) at 10uM” value stood at 3.92%.
For `CCN(C(=O)CSc1ncnc2c1cnn2-c1ccccc1)C1CCS(=O)(=O)C1` (centres unmarked), the “hERG current change (%, negative = inhibition) at 10uM” value came to 3.53%.
For `COc1ccc(CNC(=O)C(C)NCc2ccc(S(N)(=O)=O)cc2)cc1` (centres unmarked) the value was 7.7%.
`COc1ccc(C2(NC(C)=O)CCN(C(=O)c3cccs3)CC2)cc1`: the “hERG current change (%, negative = inhibition) at 10uM” value is reported as -15%.
Turning to `O=C(c1cc2ccc([N+](=O)[O-])cc2oc1=O)N1CCOCC1`, the “hERG current change (%, negative = inhibition) at 10uM” value is -2.92%.
For `CCOC(=O)c1sc(C)c2c1NC(c1ccc(N(C)C)cc1)NC2=O` (centres unmarked) the value was 3.62%.
For the molecule `COc1ccc(NC(=O)NC(C)C2CC3CCC2C3)cc1` (centres unmarked), the “hERG current change (%, negative = inhibition) at 10uM” value is reported as 5.11%.
In the case of `CCOc1ccc(CN2CCN(C(=O)c3cccc4ccccc34)CC2)cc1.O=C(O)C(=O)O`, the “hERG current change (%, negative = inhibition) at 10uM” value was -23.4%.
For the molecule `COC(=O)COc1ccc(S(=O)(=O)Nc2ccc(NC(C)=O)cc2)cc1C`, the “hERG current change (%, negative = inhibition) at 10uM” value was 19.8%.
`COc1cccc(CC2(CO)CCCN(Cc3ccc(-c4ccco4)cc3)C2)c1` (centres unmarked): the “hERG current change (%, negative = inhibition) at 10uM” value is recorded as -3.75%.
